# Some of the results follow.
# B1: AAL (Aleuria aurantia), P18891 (protein)
# chain: PTEFLYTSKIAAISWAATGGRQQRVYFQDLNGKIREAQRGGDNPWTGGSSQNVIGEAKLFSPLAAVTWKSAQGIQIRVYCVNKDNILSEFVYDGSKWITGQLGSVGVKVGSNSKLAALQWGGSESAPPNIRVYYQKSNGSGSSIHEYVWSGKWTAGASFGSTVPGTGIGATAIGPGRLRIYYQATDNKIREHCWDSNSWYVGGFSASASAGVSIAAISWGSTPNIRVYWQKGREELYEAAYGGSWNTPGQIKDASRPTPSLPDTFIAANSSGNIDISVFFQASGVSLQQWQWISGKGWSIGAVVPTGTPAGW
# What was measured:
# Test in all cases: glycan array binding signal (z-score within array); higher = stronger binding
# Conditions in all cases: glycan notation: IUPAC condensed, linker removed
# Fuc(a1-2)Gal = target: Fuc(a1-2)Gal
# Summary of the method: (§1)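 The Consortium for Functional Glycomics database supplied 3228 glycan arrays, of which those lacking an available protein sequence were dropped. The binding signal, a within-array Z-score, was averaged across arrays of the same protein sequence and across linkers. Negative scores can be read as non-binding.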
# Fuc(a1-2)Gal(b1-3)GalNAc = target: Fuc(a1-2)Gal(b1-3)GalNAc
# Summary of the method: as §1
# [1] = target: Fuc(a1-2)Gal(b1-3)GalNAc(a1-3)[Fuc(a1-2)]Gal(b1-4)Glc
# Summary of the method: as §1
# [2] = target: Fuc(a1-2)Gal(b1-3)GalNAc(a1-3)[Fuc(a1-2)]Gal(b1-4)GlcNAc
# Summary of the method: as §1
# [3] = target: Fuc(a1-2)Gal(b1-3)GalNAc(b1-3)Gal
# Summary of the method: as §1
# [4] = target: Fuc(a1-2)Gal(b1-3)GalNAc(b1-3)Gal(a1-4)Gal(b1-4)Glc
# Summary of the method: as §1
# [5] = target: Fuc(a1-2)Gal(b1-3)GalNAc(b1-3)Gal(b1-4)Glc
# Summary of the method: as §1
# [6] = target: Fuc(a1-2)Gal(b1-3)GalNAc(b1-4)[Neu5Ac(a2-3)]Gal(b1-4)Glc
# Summary of the method: as §1
# Fuc(a1-2)Gal(b1-3)GlcNAc = target: Fuc(a1-2)Gal(b1-3)GlcNAc
# Summary of the method: as §1
# [7] = target: Fuc(a1-2)Gal(b1-3)GlcNAc(b1-2)Man(a1-3)[Fuc(a1-2)Gal(b1-3)GlcNAc(b1-2)Man(a1-6)]Man(b1-4)GlcNAc(b1-4)GlcNAc
# Summary of the method: as §1
# [8] = target: Fuc(a1-2)Gal(b1-3)GlcNAc(b1-2)Man(a1-3)[Fuc(a1-2)Gal(b1-3)GlcNAc(b1-2)Man(a1-6)]Man(b1-4)GlcNAc(b1-4)[Fuc(a1-6)]GlcNAc
# Summary of the method: as §1
# [9] = target: Fuc(a1-2)Gal(b1-3)GlcNAc(b1-3)Gal(b1-4)Glc
# Summary of the method: as §1
# [10] = target: Fuc(a1-2)Gal(b1-3)GlcNAc(b1-3)GalNAc
# Summary of the method: as §1
# [11] = target: Fuc(a1-2)Gal(b1-3)GlcNAc(b1-3)[Fuc(a1-3)[Gal(b1-4)]GlcNAc(b1-6)]Gal(b1-4)Glc
# Summary of the method: as §1
# [12] = target: Fuc(a1-2)Gal(b1-3)GlcNAc(b1-3)[Gal(b1-4)GlcNAc(b1-6)]Gal(b1-4)Glc
# Summary of the method: as §1
# [13] = target: Fuc(a1-2)Gal(b1-3)[Fuc(a1-4)]GlcNAc
# Summary of the method: as §1
# [14] = target: Fuc(a1-2)Gal(b1-3)[Fuc(a1-4)]GlcNAc(b1-2)Man(a1-3)[Fuc(a1-2)Gal(b1-3)[Fuc(a1-4)]GlcNAc(b1-2)Man(a1-6)]Man(b1-4)GlcNAc(b1-4)GlcNAc
# Summary of the method: as §1
# [15] = target: Fuc(a1-2)Gal(b1-3)[Fuc(a1-4)]GlcNAc(b1-3)[Fuc(a1-3)[Gal(b1-4)]GlcNAc(b1-6)]Gal(b1-4)Glc
# Summary of the method: as §1
# [16] = target: Fuc(a1-2)Gal(b1-3)[Fuc(a1-4)]GlcNAc(b1-3)[Gal(b1-4)GlcNAc(b1-6)]Gal(b1-4)Glc
# Summary of the method: as §1
# Fuc(a1-2)Gal(b1-4)Glc = target: Fuc(a1-2)Gal(b1-4)Glc
# Summary of the method: as §1
# Fuc(a1-2)Gal(b1-4)Glc6S = target: Fuc(a1-2)Gal(b1-4)Glc6S
# Summary of the method: as §1
# Fuc(a1-2)Gal(b1-4)GlcNAc = target: Fuc(a1-2)Gal(b1-4)GlcNAc
# Summary of the method: as §1
# [17] = target: Fuc(a1-2)Gal(b1-4)GlcNAc(b1-2)Man(a1-3)[Fuc(a1-2)Gal(b1-4)GlcNAc(b1-2)Man(a1-6)]Man(b1-4)GlcNAc(b1-4)GlcNAc
# Summary of the method: as §1
# [18] = target: Fuc(a1-2)Gal(b1-4)GlcNAc(b1-2)Man(a1-3)[Fuc(a1-2)Gal(b1-4)GlcNAc(b1-2)Man(a1-6)]Man(b1-4)GlcNAc(b1-4)[Fuc(a1-6)]GlcNAc
# Summary of the method: as §1
# [19] = target: Fuc(a1-2)Gal(b1-4)GlcNAc(b1-2)[Fuc(a1-2)Gal(b1-4)GlcNAc(b1-4)]Man(a1-3)[Fuc(a1-2)Gal(b1-4)GlcNAc(b1-2)Man(a1-6)]Man(b1-4)GlcNAc(b1-4)GlcNAc
# Summary of the method: as §1
# [20] = target: Fuc(a1-2)Gal(b1-4)GlcNAc(b1-3)Gal(b1-4)GlcNAc
# Summary of the method: as §1
# [21] = target: Fuc(a1-2)Gal(b1-4)GlcNAc(b1-3)Gal(b1-4)GlcNAc(b1-3)Gal(b1-4)GlcNAc
# Summary of the method: as §1
# [22] = target: Fuc(a1-2)Gal(b1-4)GlcNAc(b1-3)GalNAc
# Summary of the method: as §1
# [23] = target: Fuc(a1-2)Gal(b1-4)GlcNAc6S
# Summary of the method: as §1
# [24] = target: Fuc(a1-2)Gal(b1-4)[Fuc(a1-3)]GalNAc(b1-3)Gal(b1-4)[Fuc(a1-3)]GlcNAc
# Summary of the method: as §1
# [25] = target: Fuc(a1-2)Gal(b1-4)[Fuc(a1-3)]GalNAc(b1-3)Gal(b1-4)[Fuc(a1-3)]GlcNAc(b1-3)Gal(b1-4)[Fuc(a1-3)]GalNAc
# Summary of the method: as §1
# [26] = target: Fuc(a1-2)Gal(b1-4)[Fuc(a1-3)]GlcNAc
# Summary of the method: as §1
# [27] = target: Fuc(a1-2)Gal(b1-4)[Fuc(a1-3)]GlcNAc(b1-2)Man(a1-3)[Fuc(a1-2)Gal(b1-4)[Fuc(a1-3)]GlcNAc(b1-2)Man(a1-6)]Man(b1-4)GlcNAc(b1-4)GlcNAc
# Summary of the method: as §1
# [28] = target: Fuc(a1-2)Gal(b1-4)[Fuc(a1-3)]GlcNAc(b1-2)[Fuc(a1-2)Gal(b1-4)[Fuc(a1-3)]GlcNAc(b1-4)]Man(a1-3)[Fuc(a1-2)Gal(b1-4)[Fuc(a1-3)]GlcNAc(b1-2)Man(a1-6)]Man(b1-4)GlcNAc(b1-4)GlcNAc
# Summary of the method: as §1
# [29] = target: Fuc(a1-2)Gal(b1-4)[Fuc(a1-3)]GlcNAc(b1-3)Gal(b1-4)[Fuc(a1-3)]GlcNAc
# Summary of the method: as §1
# [30] = target: Fuc(a1-2)Gal(b1-4)[Fuc(a1-3)]GlcNAc(b1-3)Gal(b1-4)[Fuc(a1-3)]GlcNAc(b1-3)Gal(b1-4)[Fuc(a1-3)]GlcNAc
# Summary of the method: as §1
# [31] = target: Fuc(a1-2)Gal(b1-4)[Fuc(a1-3)]GlcNAc(b1-3)GalNAc
# Summary of the method: as §1
# Fuc(a1-2)Gal6S(b1-4)Glc = target: Fuc(a1-2)Gal6S(b1-4)Glc
# Summary of the method: as §1
# [32] = target: Fuc(a1-2)Gal6S(b1-4)Glc6S
# Summary of the method: as §1
# [33] = target: Fuc(a1-2)Gal6S(b1-4)GlcNAc
# Summary of the method: as §1
# Fuc(a1-2)GlcNAc = target: Fuc(a1-2)GlcNAc
# Summary of the method: as §1
# Fuc(a1-2)[Gal(a1-3)]Gal = target: Fuc(a1-2)[Gal(a1-3)]Gal
# Summary of the method: as §1
# [34] = target: Fuc(a1-2)[Gal(a1-3)]Gal(b1-3)GlcNAc
# Summary of the method: as §1
# [35] = target: Fuc(a1-2)[Gal(a1-3)]Gal(b1-3)GlcNAc(b1-2)Man(a1-3)[Fuc(a1-2)[Gal(a1-3)]Gal(b1-3)GlcNAc(b1-2)Man(a1-6)]Man(b1-4)GlcNAc(b1-4)GlcNAc
# Summary of the method: as §1
# [36] = target: Fuc(a1-2)[Gal(a1-3)]Gal(b1-3)GlcNAc(b1-3)GalNAc
# Summary of the method: as §1
binder,measurement,setting,value
B1,glycan array binding signal (z-score),Fuc(a1-2)Gal,1.88
same,glycan array binding signal (z-score),Fuc(a1-2)Gal(b1-3)GalNAc,0.997
same,glycan array binding signal (z-score),[1],0.135
same,glycan array binding signal (z-score),[2],0.095
same,glycan array binding signal (z-score),[3],-0.503
same,glycan array binding signal (z-score),[4],0.298
same,glycan array binding signal (z-score),[5],2.15
same,glycan array binding signal (z-score),[6],-0.417
same,glycan array binding signal (z-score),Fuc(a1-2)Gal(b1-3)GlcNAc,0.956
same,glycan array binding signal (z-score),[7],0.432
same,glycan array binding signal (z-score),[8],-0.012
same,glycan array binding signal (z-score),[9],0.776
same,glycan array binding signal (z-score),[10],-0.303
same,glycan array binding signal (z-score),[11],1.17
same,glycan array binding signal (z-score),[12],0.752
same,glycan array binding signal (z-score),[13],1.55
same,glycan array binding signal (z-score),[14],-0.312
same,glycan array binding signal (z-score),[15],0.986
same,glycan array binding signal (z-score),[16],0.546
same,glycan array binding signal (z-score),Fuc(a1-2)Gal(b1-4)Glc,2.05
same,glycan array binding signal (z-score),Fuc(a1-2)Gal(b1-4)Glc6S,3.52
same,glycan array binding signal (z-score),Fuc(a1-2)Gal(b1-4)GlcNAc,2.11
same,glycan array binding signal (z-score),[17],1.95
same,glycan array binding signal (z-score),[18],-0.429
same,glycan array binding signal (z-score),[19],1.06
same,glycan array binding signal (z-score),[20],2.22
same,glycan array binding signal (z-score),[21],3.03
same,glycan array binding signal (z-score),[22],0.139
same,glycan array binding signal (z-score),[23],2.6
same,glycan array binding signal (z-score),[24],1.67
same,glycan array binding signal (z-score),[25],2.25
same,glycan array binding signal (z-score),[26],2.51
same,glycan array binding signal (z-score),[27],0.91
same,glycan array binding signal (z-score),[28],0.609
same,glycan array binding signal (z-score),[29],2.37
same,glycan array binding signal (z-score),[30],2.68
same,glycan array binding signal (z-score),[31],-0.341
same,glycan array binding signal (z-score),Fuc(a1-2)Gal6S(b1-4)Glc,2.37
same,glycan array binding signal (z-score),[32],2.44
same,glycan array binding signal (z-score),[33],2.6
same,glycan array binding signal (z-score),Fuc(a1-2)GlcNAc,1.05
same,glycan array binding signal (z-score),Fuc(a1-2)[Gal(a1-3)]Gal,1.85
same,glycan array binding signal (z-score),[34],-0.497
same,glycan array binding signal (z-score),[35],-0.407
same,glycan array binding signal (z-score),[36],-0.428

# — the supplement of paper PMC8728848
